Holding throughout (assay): universal protein binding microarray (PBM)
What all share (conditions): transcription factors of Arabidopsis thaliana; high values mean tight binding; most listed sequences are background and not binding sites; double strand, one strand shown

Experiment [1] deals with T1, GST-ANAC092(1-176) (UniProt Q9FKA0).
T1 sequence: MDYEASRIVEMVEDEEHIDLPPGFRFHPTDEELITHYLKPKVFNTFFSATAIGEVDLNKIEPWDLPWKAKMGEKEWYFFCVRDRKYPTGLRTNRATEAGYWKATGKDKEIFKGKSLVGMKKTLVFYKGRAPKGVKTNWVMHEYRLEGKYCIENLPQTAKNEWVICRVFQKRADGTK

In experiment [2] the target is GST-NTL6(1-168) (UniProt Q9SCK6).
Chain of UniProt Q9SCK6 (Q9SCK6 1-168): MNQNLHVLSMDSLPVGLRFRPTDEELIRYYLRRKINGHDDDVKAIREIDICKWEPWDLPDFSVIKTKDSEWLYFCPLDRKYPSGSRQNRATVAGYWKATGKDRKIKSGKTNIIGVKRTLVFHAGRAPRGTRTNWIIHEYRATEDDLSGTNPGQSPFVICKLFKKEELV
The target in experiment [3] is T2, GST-ANAC019 NAC domain (UniProt Q9C932).
T2 sequence: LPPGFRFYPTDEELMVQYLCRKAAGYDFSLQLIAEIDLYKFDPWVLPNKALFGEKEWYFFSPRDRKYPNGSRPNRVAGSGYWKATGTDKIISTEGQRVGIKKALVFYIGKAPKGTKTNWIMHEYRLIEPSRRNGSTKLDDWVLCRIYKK

In experiment [4] the target is T3, GST-ANAC055(1-171) (UniProt Q9LDY8).
T3 sequence: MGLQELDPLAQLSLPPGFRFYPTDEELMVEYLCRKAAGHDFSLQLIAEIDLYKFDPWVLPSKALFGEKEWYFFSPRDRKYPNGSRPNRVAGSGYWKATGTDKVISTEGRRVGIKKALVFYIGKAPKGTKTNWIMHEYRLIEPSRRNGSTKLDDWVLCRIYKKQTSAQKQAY

Experiment [5] deals with T4, GST-ANAC092(1-285) full length (UniProt Q9FKA0).
T4 sequence: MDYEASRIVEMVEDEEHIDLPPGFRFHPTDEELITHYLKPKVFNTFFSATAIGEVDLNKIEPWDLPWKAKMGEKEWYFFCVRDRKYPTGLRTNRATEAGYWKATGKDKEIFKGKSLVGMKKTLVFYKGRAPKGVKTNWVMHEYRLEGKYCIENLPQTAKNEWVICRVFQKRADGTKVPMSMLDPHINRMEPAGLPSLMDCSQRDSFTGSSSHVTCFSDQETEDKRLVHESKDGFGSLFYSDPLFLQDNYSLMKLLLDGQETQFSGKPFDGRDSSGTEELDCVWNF

Experiment [6] has as its target T5, GST-NAP(1-166) (UniProt O49255).
T5 sequence: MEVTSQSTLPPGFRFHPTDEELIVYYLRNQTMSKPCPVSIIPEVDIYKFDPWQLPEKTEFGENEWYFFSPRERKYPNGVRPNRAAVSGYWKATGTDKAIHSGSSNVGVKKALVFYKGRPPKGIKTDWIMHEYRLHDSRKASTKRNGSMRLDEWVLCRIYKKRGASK

Experiment [7] has as its target T6, GST-NTL8 NAC domain (UniProt Q9XIN7).
T6 sequence: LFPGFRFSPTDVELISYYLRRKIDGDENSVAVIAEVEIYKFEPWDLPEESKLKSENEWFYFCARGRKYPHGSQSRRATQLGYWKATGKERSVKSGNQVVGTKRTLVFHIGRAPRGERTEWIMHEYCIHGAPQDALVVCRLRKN

The target of experiment [8] is T7, GST-SND1(1-203) (UniProt Q9LPI7).
T7 sequence: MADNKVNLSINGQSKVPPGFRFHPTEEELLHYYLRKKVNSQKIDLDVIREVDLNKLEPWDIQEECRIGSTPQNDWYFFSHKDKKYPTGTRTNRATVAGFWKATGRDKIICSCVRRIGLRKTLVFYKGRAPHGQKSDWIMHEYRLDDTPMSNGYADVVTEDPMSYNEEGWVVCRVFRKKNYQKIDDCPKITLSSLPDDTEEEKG

Experiment [9] deals with T8, GST-VND3 NAC domain (UniProt Q9FH59).
T8 sequence: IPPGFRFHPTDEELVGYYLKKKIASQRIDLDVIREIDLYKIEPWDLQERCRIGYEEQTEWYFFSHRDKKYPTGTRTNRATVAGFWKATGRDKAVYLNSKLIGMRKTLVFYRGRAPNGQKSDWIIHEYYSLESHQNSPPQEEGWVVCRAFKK

Experiment [10] deals with T9, GST-VND7 NAC domain (UniProt Q9C8W9).
T9 sequence: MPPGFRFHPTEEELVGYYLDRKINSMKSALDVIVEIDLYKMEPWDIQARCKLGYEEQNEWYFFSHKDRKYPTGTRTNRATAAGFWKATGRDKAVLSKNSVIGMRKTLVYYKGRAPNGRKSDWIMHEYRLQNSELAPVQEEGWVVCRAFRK

Experiment [11] concerns the target T10, GST-VOZ2 (Arabidopsis thaliana) (UniProt Q9SLB9).
T10 sequence: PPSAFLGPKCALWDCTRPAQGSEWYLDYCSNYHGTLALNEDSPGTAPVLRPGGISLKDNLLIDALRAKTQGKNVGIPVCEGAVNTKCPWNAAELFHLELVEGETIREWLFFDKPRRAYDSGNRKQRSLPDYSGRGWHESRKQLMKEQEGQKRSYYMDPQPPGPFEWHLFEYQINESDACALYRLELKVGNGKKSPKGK

Experiment [12] deals with T11, GST-ATAF1 NAC domain (UniProt Q39013).
T11 sequence: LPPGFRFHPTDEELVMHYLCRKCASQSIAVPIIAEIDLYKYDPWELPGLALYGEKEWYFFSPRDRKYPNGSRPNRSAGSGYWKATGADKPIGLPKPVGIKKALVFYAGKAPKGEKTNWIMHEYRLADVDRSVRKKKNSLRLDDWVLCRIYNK

In experiment [13] the target is T12, GST-NST2(1-184) (UniProt Q9M274).
T12 sequence: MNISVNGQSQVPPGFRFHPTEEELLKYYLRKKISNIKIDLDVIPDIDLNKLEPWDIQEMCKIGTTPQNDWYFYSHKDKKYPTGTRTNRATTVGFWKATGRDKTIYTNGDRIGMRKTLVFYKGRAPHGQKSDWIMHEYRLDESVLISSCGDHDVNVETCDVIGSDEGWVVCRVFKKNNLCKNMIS

Experiment [14] concerns the target GST-WRKY1(266-371) (UniProt Q9SI37).
Chain of UniProt Q9SI37 (Q9SI37 266-371): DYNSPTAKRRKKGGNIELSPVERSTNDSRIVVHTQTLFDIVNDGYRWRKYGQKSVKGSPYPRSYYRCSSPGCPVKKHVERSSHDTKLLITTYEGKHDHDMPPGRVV

The list shows a part of the results, in another mix than the full data. For part of these data: At the low end of the ranking, values are background and their order means little. The list shows a part of the results. For part of these data: Construct or isoform of the protein are uncertain.

In the case of GGTCAAAC, the binding signal is 0.0595 E-score in [1]; -0.0163 E-score in [2]; 0.0385 E-score in experiment [3]; -0.00958 E-score in experiment [4]; 0.0869 E-score in experiment [5]; -0.125 E-score in [6]. Also, the binding signal is -0.0216 E-score in experiment [7]; -0.0399 E-score in experiment [8]; -0.0822 E-score in experiment [9]; -0.00052 E-score in experiment [10]; 0.00553 E-score in experiment [11].
On to GGTCAAGA, for which the binding signal in [1] was 0.0459 E-score; in [2], -0.0123 E-score; in experiment [4] it was -0.0714 E-score; in experiment [12] it was -0.0659 E-score; in experiment [6], 0.034 E-score; in [7], -0.0584 E-score. Moreover, the binding signal was 0.0253 E-score in experiment [8], -0.0172 E-score in experiment [9], -0.128 E-score in experiment [10] and -0.0971 E-score in experiment [11].
GGGTCAAC: the binding signal in experiment [2] is -0.0318 E-score; in [3], 0.0467 E-score; in experiment [4], -0.0601 E-score; in experiment [12] it was -0.0697 E-score; in experiment [6], -0.0703 E-score; in experiment [13], -0.128 E-score. Besides, the binding signal in experiment [7] is -0.0572 E-score; in experiment [8] it was -0.0744 E-score; in experiment [9], -0.15 E-score; in experiment [10] it was -0.0545 E-score; in experiment [11] it was 0.00599 E-score.
Take CTGACCAC: the binding signal in experiment [1] was -0.114 E-score; in [2] it was -0.0372 E-score; in experiment [4], 0.0073 E-score; in experiment [12], -0.0675 E-score; in [5], -0.00836 E-score; in experiment [6], -0.123 E-score. In addition, the binding signal in experiment [13] was -0.0133 E-score; in [7], -0.121 E-score; in [8], 0.0107 E-score; in [9], 0.0167 E-score; in experiment [10], -0.0753 E-score; in experiment [11] it was -0.00118 E-score.
Turning to AGCTTGAC, the binding signal was -0.0527 E-score in experiment [2]; -0.0714 E-score in experiment [4]; -0.1 E-score in experiment [12]; 0.0572 E-score in experiment [6]; -0.0625 E-score in experiment [13]; 0.0279 E-score in experiment [7]. Moreover, the binding signal in [8] was -0.0184 E-score; in [9], -0.00553 E-score; in experiment [11], -0.193 E-score.
With GTTACGCA, the binding signal in [2] is 0.0189 E-score; in experiment [4] it was 0.189 E-score; in experiment [13], 0.219 E-score; in [7], 0.0244 E-score; in experiment [8] it was 0.422 E-score; in [9], 0.317 E-score. The binding signal in [11] was 0.138 E-score; in experiment [14], -0.195 E-score.
On to GACGTCAA, for which the binding signal is 0.00893 E-score in experiment [2]; -0.0623 E-score in experiment [3]; 0.0728 E-score in [12]; -0.0594 E-score in experiment [7]; 0.139 E-score in experiment [8]; 0.126 E-score in experiment [9]. The binding signal stood at 0.0526 E-score in experiment [10] and 0.0183 E-score in [11].
